# Reference: the BET-seq Pho4 binding data (Le et al. 2018)
# The list shows a part of the results. These are noisy estimates, calculated here from bound and input reads.
# Target: T1, Pho4 (S. cerevisiae) (UniProt P07270)
# T1 sequence: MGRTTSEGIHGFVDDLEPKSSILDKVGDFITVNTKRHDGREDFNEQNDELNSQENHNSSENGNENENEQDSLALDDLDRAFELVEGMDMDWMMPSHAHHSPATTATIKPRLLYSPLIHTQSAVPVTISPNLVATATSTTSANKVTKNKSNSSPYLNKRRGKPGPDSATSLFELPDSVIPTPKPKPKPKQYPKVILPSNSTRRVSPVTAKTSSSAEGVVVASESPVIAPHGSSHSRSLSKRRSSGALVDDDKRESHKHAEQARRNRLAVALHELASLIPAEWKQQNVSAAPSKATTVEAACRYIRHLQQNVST
# Test: relative binding free energy (BET-seq); higher = weaker binding
# Settings: reference: library average
row,Sequence,relative binding free energy [kcal/mol]
1,GTGTTCACGTGGCCAT,0.2
2,GGGTTCACGTGGAGAA,0.31
3,TTTCGCACGTGTTATA,-0.03
4,AGGTTCACGTGTAGGG,0.2
5,TGCAACACGTGTGTTG,-0.04
6,TGTAACACGTGAGTCG,0.24
7,GGTTCCACGTGGGCTT,0.19
8,TTTTACACGTGGCTGT,0.08
9,ACTGGCACGTGAGATG,0.04
10,TGGAACACGTGGTAAG,0.01
11,TTGGTCACGTGTGCTG,0.07
12,TGACTCACGTGTCGGG,0.19
13,TCTGCCACGTGTATGG,0.09
14,GAGTTCACGTGGTCTT,0.27
15,GATTTCACGTGGTACA,0.35
16,CGAGGCACGTGTTGTT,-0.08
17,ATGTACACGTGGTAGT,0.04
18,GGGCGCACGTGGGAGC,-0.14
19,CGATTCACGTGTAAGT,0.41
20,CTAGTCACGTGGTGTG,0.01
21,GGGTGCACGTGTGTAG,0.05
22,TTAGGCACGTGATACG,-0.15
23,TGGGTCACGTGTATGT,0.14
24,ATGCGCACGTGGTGCG,-0.03
25,GTGGACACGTGTGTCG,0.15
26,ATGCGCACGTGAATGG,0.11

row,Sequence,relative binding free energy [kcal/mol]
1,GAATGCACGTGTGGGT,0.16
2,TTTGGCACGTGATTTA,-0.03
3,TAAATCACGTGATGGA,0.18
4,GGGTTCACGTGAAGAT,0.48
5,GTAGTCACGTGTGGGC,0.23
6,AGTGTCACGTGATACT,0.26
7,CATGTCACGTGTGAGT,0.1
8,TAGACCACGTGGGGGC,-0.14
9,GGTTGCACGTGTGTAA,-0.04
10,ATGCGCACGTGGAATG,0.02
11,ATTGGCACGTGTAAGC,-0.07
12,TTAGGCACGTGCAGAG,-0.16
13,GGGATCACGTGTTTGT,0.29
14,GTCGGCACGTGGTGTC,0
15,TAAGTCACGTGATTTA,0.21
16,CTAGTCACGTGGGATA,-0.02
17,CTTCTCACGTGGGTGT,0.1
18,TCGTGCACGTGTTTCG,-0.03
19,ACGTGCACGTGATGGA,-0.04
20,GTAAACACGTGTGGTT,0
21,CAGTGCACGTGGGGCG,-0.21
22,AGTGTCACGTGGGGAC,-0.14
23,ATGGCCACGTGGAGGT,-0.08
24,ATTTTCACGTGGTGGC,0.22
25,AGGATCACGTGGTCAG,0.02
26,AAAAGCACGTGTGGTC,0.01

row,Sequence,relative binding free energy [kcal/mol]
1,CGGGTCACGTGCTATG,-0.03
2,GTCGGCACGTGCAGGG,-0.05
3,TTGAGCACGTGATAAT,-0.08
4,AGGCACACGTGGTCGG,-0.08
5,AGTGGCACGTGAACAG,0.15
6,TAATGCACGTGCGAGG,-0.09
7,AGTGACACGTGCGGTC,-0.05
8,TATAGCACGTGGGTAT,-0.25
9,CGTCTCACGTGGTAGT,0.26
10,TTGGGCACGTGAACAT,0.14
11,GGGGTCACGTGAGGCT,0.3
12,CATATCACGTGTCGGT,0.24
13,GTTTTCACGTGGGGTG,0.23
14,TATATCACGTGTTGAA,0.12
15,TTAGTCACGTGTAGGT,0.03
16,GCTTTCACGTGGGGCG,0.07
17,ACGGGCACGTGAATGG,0.19
18,AATTTCACGTGGATAG,0.32
19,GTGGTCACGTGAGAGT,0.37
20,ATGGGCACGTGGAGTA,-0.17
21,TGAGTCACGTGGAGCA,0.14
22,GTTAACACGTGATGTA,0.12
23,ATTTTCACGTGTGATG,0.29
24,GGTCCCACGTGTGGGT,0.15
25,GGGATCACGTGGCCGG,0.06
26,GGTGACACGTGTACAT,0.27

row,Sequence,relative binding free energy [kcal/mol]
1,TAGGCCACGTGGATGT,0.05
2,GAGGGCACGTGTGAAG,0.01
3,GGTAGCACGTGAATTG,0.2
4,AATATCACGTGGGCAT,0.04
5,TCTAGCACGTGAGGAT,0.25
6,GCGGGCACGTGGGGCG,-0.11
7,TTCGGCACGTGGTTTG,-0.26
8,CTCGACACGTGGTGGT,-0.07
9,ATTTACACGTGGAAAA,0.24
10,ATCGGCACGTGTAATG,-0.02
11,AAGTACACGTGGGTTC,0.03
12,GGAGCCACGTGTTGGG,-0.06
13,CTGTGCACGTGGGATG,-0.15
14,TTATACACGTGAGCTT,0.12
15,TGTATCACGTGTACAG,0.09
16,TCGTCCACGTGGGGTT,-0.11
17,CGTTTCACGTGGTTTG,0.2
18,ATATTCACGTGGGTCG,0.16
19,AAGTTCACGTGGAAAG,0.26
20,ATGGTCACGTGCTGGA,0.1
21,CATAGCACGTGTGGGA,-0.03
22,AGTAACACGTGAGTAT,0.25
23,TGGGACACGTGGCTGC,-0.03
24,TGCGCCACGTGTTGTA,-0.06
25,ATGGCCACGTGTGGGT,-0.03
26,ATGGACACGTGTGGTT,0.11

row,Sequence,relative binding free energy [kcal/mol]
1,TAGGGCACGTGTTTAC,-0.22
2,CTTCACACGTGGGGTT,-0.14
3,GTTATCACGTGTGCGT,0.09
4,GTTGCCACGTGCTTGT,-0.06
5,AACTTCACGTGGGTAG,0.28
6,GTGTACACGTGATTTT,0.24
7,GAATTCACGTGTCAGT,0.31
8,ATTGCCACGTGAGGTT,0.12
9,GGCTGCACGTGGGCTT,-0.21
10,GGAGGCACGTGAGTCT,0.27
11,GCGCGCACGTGGGGCT,-0.17
12,TTGGGCACGTGACGAT,0.06
13,TACTGCACGTGGTTAT,-0.05
14,GGGTACACGTGGGTCA,-0.14
15,TAACGCACGTGGTTAG,-0.1
16,ACGGACACGTGCGGGT,0.08
17,GTTAGCACGTGCATTA,0.1
18,TGACGCACGTGGGGCT,-0.15
19,TTTAGCACGTGGGTAG,-0.16
20,GTAGTCACGTGAAGTT,0.34
21,GCGGACACGTGTGGAT,0.32
22,GTATTCACGTGCGGAT,0.21
23,TACGTCACGTGTGGGG,0.15
24,TTCTGCACGTGGGTAG,-0.12
25,GGGGTCACGTGGTATG,0.05
26,CGTTGCACGTGTGTCG,-0.03

row,Sequence,relative binding free energy [kcal/mol]
1,GGTGTCACGTGTTGCA,0
2,TTGGTCACGTGGGACC,0.06
3,GTTCACACGTGGGATA,0.03
4,GCGAGCACGTGAGTGG,0.19
5,GCCGTCACGTGGGTGG,-0.14
6,GTCGTCACGTGTTCTT,0.26
7,GTCTGCACGTGGTCGT,0.06
8,AGGTACACGTGATGCT,0.21
9,TCAGTCACGTGTTGTT,-0.11
10,CGGCACACGTGGTTTG,0.05
11,GGCGGCACGTGTGAGG,0.01
12,GCATTCACGTGGTTAG,0.29
13,ATGGTCACGTGTTACT,0.11
14,AGGTTCACGTGTATTA,0.26
15,GTTGGCACGTGTAATG,0.1
16,ATAGACACGTGCGGGA,0.02
17,GGGATCACGTGGGGAG,0.03
18,GGCAGCACGTGGCGGA,-0.17
19,GTGAGCACGTGGTTAA,-0.01
20,AACATCACGTGTGGGT,0.25
21,GTTATCACGTGATAGT,0.31
22,GGAGTCACGTGATGGG,0.28
23,TCAGTCACGTGGGGAA,-0.05
24,GTAATCACGTGAACGG,0.31
25,TATTCCACGTGGGGAT,0.01
26,TGAGTCACGTGGTGGA,0.1

row,Sequence,relative binding free energy [kcal/mol]
1,TGTTCCACGTGGAGGT,-0.04
2,GTAAGCACGTGGGCTT,-0.12
3,GTAGGCACGTGAAGTG,0.19
4,ATGTGCACGTGGTCAG,-0.19
5,ATTGCCACGTGGTGGC,-0.15
6,CAGTTCACGTGGAGAT,0.25
7,TATCACACGTGTGTGG,0.16
8,GGGTGCACGTGAGGTT,0.29
9,GTTGTCACGTGCGTCG,-0.06
10,GTTCTCACGTGACGGG,0.45
11,AGCATCACGTGGGTAG,0.02
12,TCAAACACGTGGGAGG,0
13,AAGATCACGTGGGGGT,0.07
14,TGGGTCACGTGTACAT,0.1
15,AATGACACGTGGGTCA,-0.07
16,TTAAGCACGTGTGAAG,0.16
17,TGCGCCACGTGTGTTG,-0.05
18,CAAGGCACGTGTTCGT,-0.03
19,TTAAACACGTGGTGTA,-0.19
20,TGGGTCACGTGTACGG,0.11
21,ATACACACGTGGTGGG,-0.04
22,GGTGTCACGTGCTTGC,0.06
23,CGATACACGTGGGGAT,-0.04
24,TAGGCCACGTGAGGGA,-0.02
25,GTATTCACGTGTTAAA,0.33
26,GGACGCACGTGGTGTG,-0.04

row,Sequence,relative binding free energy [kcal/mol]
1,CTAGTCACGTGGGTAT,0.08
2,AGTGGCACGTGGAGAG,-0.13
3,CGGGGCACGTGTCGGA,-0.05
4,AAGACCACGTGTGGGG,0.05
5,AGGGGCACGTGAAAAA,0.26
6,GTTTTCACGTGGATCT,0.46
7,TATTACACGTGTCTGT,-0.02
8,GGGGGCACGTGTACGA,0.01
9,TTATGCACGTGGAAAG,0.09
10,TGTGTCACGTGCGCCT,-0.09
11,TCGTTCACGTGGACGG,0.33
12,TTAGGCACGTGAAGTT,0.26
13,GGTAGCACGTGGTGCG,-0.06
14,TCGTGCACGTGTCATT,0.14
15,GTAGCCACGTGCGGAG,0.11
16,TCTAGCACGTGGGCAG,-0.18
17,GTTAGCACGTGTGGCT,0.11
18,ATTGGCACGTGCTGAT,-0.24
19,TTAGGCACGTGCATTT,-0.21
20,GTAGTCACGTGGGGTT,0
21,TCGGGCACGTGGGCTT,-0.22
22,GCGGCCACGTGGTGGA,-0.06
23,TATATCACGTGGAGAG,0.19
24,TGTGTCACGTGAGAGC,0.23
25,GTTAGCACGTGTGACG,0.03
26,TTTTGCACGTGCATTA,0.06

row,Sequence,relative binding free energy [kcal/mol]
1,ATAGGCACGTGCGTAT,-0.23
2,GTTATCACGTGTTGTC,0.19
3,TGTCACACGTGTTTAA,0.18
4,ATAGTCACGTGCCGGG,0.08
5,AGGAGCACGTGGTTGC,-0.14
6,TTTGACACGTGGGGAT,-0.19
7,TGGTACACGTGTGCAT,-0.07
8,AGGTTCACGTGTTTTG,0.23
9,GTGGTCACGTGGAATA,0.34
10,TTGTACACGTGTGGAG,0.16
11,TCGTTCACGTGTGATT,0.27
12,TGAGGCACGTGTGGGA,-0.02
13,TGGGACACGTGTGTGC,0.03
14,TTCGTCACGTGCATTG,0.1
15,TTGTACACGTGGCGCT,-0.04
16,TTTTACACGTGGCGTG,0.11
17,TGCGGCACGTGATGAG,0.03
18,CGGGGCACGTGGAAAG,-0.04
19,TGATACACGTGACGTG,0.12
20,GCGATCACGTGGGTGG,0.11
21,TCGGGCACGTGGTGCG,-0.35
22,AAGGACACGTGGTATA,0.06
